Our source for the self-cleavage values is the RNAGym collection of RNA variant scans (doi:10.7554/elife.90254).

To fix the notation:
B1: OR4K15 (parent)
chain: GUUAACGGUCAUAGGCCAUGGAAACUAGGAGCACCAUUUCGCUGCCAGUGAAGAAAUGAACAAAGAAAAUCUGGGCCAGGCAGGCAUCAAAAGAAAUAGUCUUGCGCUCAACCAGAAAGUCUGUAAUCAUUUUAAGGGUA

The source gives no read counts; variants with many changes may rest on few reads.

The series covers variants of B1. As to the kind of experiment: self-cleavage, relative activity (ratio to wild type); higher = more cleavage; in vitro, sequencing; the parent is a self-cleaving ribozyme.
For GUUAACGGUCAUAGGCCAUGGAAACUAGGAGCACCAUUUCGCUGCCAGUGAAGAAAUGAACAGAGAAAGUCUGGGCCAGGCAGGCAUCAAUAGAAAUAGUCUUGCGCUCAACCAGGGAGUCUGUAAUCAUUUUAAGGGUA [A63G A69G A91U A116G A117G], the self-cleavage came out at 0.18. As for GUUAACGGUCAUAGGCCAUGGAAACUAGGAGCACCAUUUCGCUGCCAGUGAAGAAAUGAACAGAGAAAAUCUGGGCCUGGCAGGCAUCAAAAGAGAUAGUCUUGCGCUCAACCAGAAAGUCUGUAAUCAUUUUAAGGGUA [A63G A78U A95G], the figure is 0.82; as for GUUAACGGUCAUAGGCCAUGGAAACUAGGAGCACCAUUUCGCUGCCAGUGAAGAAAUGAACAGAGAAAAUCUGGGCCGGGCAGGCAUCAAAAGAGAUAGUCUUGUGCUCAACCAGAAAGCCUGUAAUCGCUUUAAGGGUA [A63G A78G A95G C105U U120C A129G U130C], 0.01. For GUUAACGGUCAUAGGCCAUGGAAACUAGGAGCACCAUUUCGCUGCCAGUGAAGAAAUGAACAGAGAAAAUCUGGGCCAGGCAGGCAUCGAAAGAAAUAGUCUUGCGCUCAACCAGAAAGUCAGUAAUCAUUUUAAGGGUA [A63G A89G U122A], the self-cleavage stood at 0.72. For the variant GUUAACGGUCAUAGGCCAUGGAAACUAGGAGCACCAUUUCGCUGCCAGUGAAGAAAUGAACAGAGAAAAUCUGGGCCAGGCAGGCAUCGAAAGAAAUAGUCUUGCGCUCAACCAGAAAGUCCGUAAUCAUUUUAAGGGUA [A63G A89G U122C], the self-cleavage is 1.14.

In the case of GUUAACGGUCAUAGGCCAUGGAAACUAGGAGCACCAUUUCGCUGCCAGUGAAGAAAUGAACAGAGAAAAUCUGGGCCAGGCGGGCAUCAAAAGAAAUAGUCUUGCGCUCAACCAGAAAGUCUGUAAUCAUUAUAAGGGUA [A63G A82G U132A], the self-cleavage came to 0.28.

In the case of GUUAACGGUCAUAGGCCAUGGAAACUAGGAGCACCAUUUCGCUGCCAGUGAAGAAAUGAACAGAGAAAAUCUGGGCCAGCCAGGCAUCAAUAGAAAUAGUCUUGCGCUCAACCAGAAGGUCUGUAAUCAUUUUAAGGGUA [A63G G80C A91U A118G], the self-cleavage was 0.15. Under GUUAACGGUCAUAGGCCAUGGAAACUAGGAGCACCAUUUCGCUGCCAGUGAAGAAAUGAACAGAGAAAAUCUGGGCCAGGCAGGCAUCAAAAGGAAUAGUCCUGCGCUCAACCAGAAAGUCUGUAAUCAUUUUAAGGGUA [A63G A94G U102C] stands 1.51. Consider GUUAACGGUCAUAGGCCAUGGAAACUAGGAGCACCAUUUCGCUGCCAGUGAAGAAAUGAACAGAGAAAUUCUGGGCCAGGCAGGCAUCAAGAGAAACAGUCUUGCGCUCAACCAGAAAGUCCGUAAUCAUUUUAAGGGUA [A63G A69U A91G U97C U122C], for which the self-cleavage is 0.32. Regarding GUUAACGGUCAUAGGCCAUGGAAACUAGGAGCACCAUUUCGCUGCCAGUGAAGAAAUGAACAGAGAAAAUCUGGGCCAGGCAGGCAUCAAAAGGAAUAGUCUUGCGCUCAACCAGAAAGUCUGUAAUCAUUUUAAGGGUG [A63G A94G A140G], the self-cleavage came out at 2.17. Consider GUUAACGGUCAUAGGCCAUGGAAACUAGGAGCACCAUUUCGCUGCCAGUGAAGAAAUGAACAGAGAAAAUCUGGGCCAGGCAGGCAUCAAAAGGAAUAGUCUUGCGCUCAACCGGAAAGUCCGUAAUCAUUUUAAGGGUA [A63G A94G A114G U122C], for which the self-cleavage worked out at 0.06. As to GUUAACGGUCAUAGGCCAUGGAAACUAGGAGCACCAUUUCGCUGCCAGUGAAGAAAUGAACAGAGAAAAUCUGGGCCAGGCAGGCAACAAAAGAAAUAGUCUUGCGCCCAACCAGAAAGUCUGUGAUCAUUUUAAGGGUA [A63G U87A U108C A125G], the self-cleavage turned out to be 0. Take GUUAACGGUCAUAGGCCAUGGAAACUAGGAGCACCAUUUCGCUGCCAGUGAAGAAAUGAACAGAGAAAAUCUGGGCCGGGCAGGCAUCAAAAGAAAUAGUCUUGCGCUCAACCAGAAAGUCUGUAAUCAUAUUAAGGGUA [A63G A78G U131A]: the self-cleavage was found to be 0.27. For GUUAACGGUCAUAGGCCAUGGAAACUAGGAGCACCAUUUCGCUGCCAGUGAAGAAAUGAACAGAGAAAAUCUGGGCCAGGCAGGCAUCAAAAGAAAUGGUCUUGCGCUCAACCAGAGAGUCUGUAGUCAUUUUAAGGGUA [A63G A98G A117G A126G], the self-cleavage was found to be 0.22. Turning to GUUAACGGUCAUAGGCCAUGGAAACUAGGAGCACCAUUUCGCUGCCAGUGAAGAAAUGAACAGAGAAAAUCUGGGCCAGGCAGGCAUCAAAAGAAAUAGUCUUGCGCUCAGCCAGAAAGUCUGUAAACAUUUUAAGGGUA [A63G A111G U127A], the self-cleavage is 0.02. GUUAACGGUCAUAGGCCAUGGAAACUAGGAGCACCAUUUCGCUGCCAGUGAAGAAAUGAACAGAGAAAAUCUGGGCCAGGCAGGCUUCAAAAGAAAUAGUCUUGCGCUCACCCAGAAAGUCUGUAAUCGUUUUAAGGGUA [A63G A86U A111C A129G]: the self-cleavage was 0. Consider GUUAACGGUCAUAGGCCAUGGAAACUAGGAGCACCAUUUCGCUGCCAGUGAAGAAAUGAACAGAGAAAAUCUGGGCCAGGCAGGCAUCAAAAGAAAUAGUCUUGCGCUCAACCAGAAUGUCUGUAAUCUUUUUAAGGGUA [A63G A118U A129U], for which the self-cleavage was 0.66. Turning to GUUAACGGUCAUAGGCCAUGGAAACUAGGAGCACCAUUUCGCUGCCAGUGAAGAAAUGAACAGAGAAAAUCUGGGCCAGGCAGGCAUCAAAAGAAAUAGUCUUGCGCUCCACCAGUAAGUCUGUAAUCUUUUUAAGGGUA [A63G A110C A116U A129U], the self-cleavage was 0.05. GUUAACGGUCAUAGGCCAUGGAAACUAGGAGCACCAUUUCGCUGCCAGUGAAGAAAUGAACAGAGAAAAUCUGGGCCAGGCAGGCAUCAAAAGGAAUAGUCUUGCGCUCAACCAGAAAGUCUGUAAUCUUUUUAAGGGUA [A63G A94G A129U]: the self-cleavage was 0.83.

As to GUUAACGGUCAUAGGCCAUGGAAACUAGGAGCACCAUUUCGCUGCCAGUGAAGAAAUGAACAGAGAAAAUCUGGGCCAGGCUGGCAUCAAAAGGAAUAGUCUUGCGCCCAACCAGAAAGUCUGUAAUCAUUUUAAGGGUA [A63G A82U A94G U108C], the self-cleavage turned out to be 0.05.

On to GUUAACGGUCAUAGGCCAUGGAAACUAGGAGCACCAUUUCGCUGCCAGUGAAGAAAUGAACAGAGAAAAUCUGGGCCAGGCAGGCAUCAAAGGAAAUAGUCUUGCGCUCAACCAGUAAGUCUGUAAUCAUUUUAAGGGUA [A63G A92G A116U], for which the self-cleavage came out at 0.41.
